The values below come from the supplement of paper PMC11417369.

Some of the results follow.

This test has as its system PfAP2-HC AP2 domain (GST-tagged). The test is described as follows: gcPBM binding intensity (ln(normalized median fluorescence intensity)); higher = stronger DNA binding. In outline: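 The binding buffer was 1× PBS containing 1% milk, 0.2 mg/ml BSA, 0.5% salmon testes DNA and 0.03% Triton X-100. In it, GST-tagged P. falciparum DNA-binding domains expressed in E. coli were applied for 1 h to an Agilent 4 × 180k array of primer-extended double-stranded 36-bp intergenic genomic probes plus negative controls. Binding intensity, read with Alexa488 anti-GST antibody and a 488 nm scan, is the highest Masliner-normalised natural-log median intensity across replicate spots of either probe orientation.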
“AAATTTTAATTAGGAACACACATATATATATATATA [CACACA_site5673]”: the “gcPBM binding intensity (ln)” value was 9.69.
Consider “CATAAAAATGGATACACACACATAATATATTTATAT [CACACA_site7669]”, for which the “gcPBM binding intensity (ln)” value worked out at 10.5.
As for “ACAATATATTCATATTGTACATAAAATAAGGCTAAC [XGTACX_site6728]”, the “gcPBM binding intensity (ln)” value amounted to 9.83.
For “TTTTCAGAAAAGAGAAACTTTATTTTTCACAACCGA [TGCATGCA_negctrl_site389]” the value was 9.41; for “ATTTTTTATGAAAATAAACACACGATTTATTATATA [CACACA_site1312]”, 9.56.
“TAAAAAATTATTAAACGTACGAGACTTTTTATCAGT [XGTACX_site2219]”: the “gcPBM binding intensity (ln)” value was found to be 9.56.
For “TGTAGTCATTAGTCAAATTAGAATTAAATATATATT [GTGCAC_negctrl_site643]” the value was 9.44; for “AAAAAATCACGACACACACACACACTAAAAAAAAAA [CACACA_site6792]”, 11.3.
For “AATGTTTTTTTTTTTTTTTTTTTTTATTTATTGTTA [CACACA_negctrl_site505]” the value was 9.56.
For “ATCAAATAATAGCAAACACACAAAAAATAAAAAAAA [CACACA_site4146]” the value was 9.93; for “ATTTTTTGGAAAAGAAGTACAATGGATTTATACGTT [XGTACX_site891]”, 9.44; for “TAACATATAATATTATGTACATATATACATATATAA [XGTACX_site7467]”, 9.51.
On to “TATTTCAATATATACCTTTGCTTTTTTAATATACTT [XGTACX_negctrl_site556]”, for which the “gcPBM binding intensity (ln)” value turned out to be 9.77.
For “TCAATATAAATTAGTTGTACAGTTTTTTTTAATTAT [XGTACX_site6358]”, the “gcPBM binding intensity (ln)” value came to 9.54.
As for “TTTAAATAATCTAGGTGTACTTTCCTTTATAAATGT [XGTACX_site7859]”, the “gcPBM binding intensity (ln)” value was 9.52.
On to “AGAATACATATATGAACACACAGAGTTTTAAAAAAT [CACACA_site2735]”, for which the “gcPBM binding intensity (ln)” value was determined as 10.1.
Regarding “TACAGACAGAAATGCACACACATATATATATATATA [CACACA_site2283]”, the “gcPBM binding intensity (ln)” value was 9.97.
Turning to “GAAAAGCATAGATGCACACATATATATATATATATA [CACACA_site2169]”, the “gcPBM binding intensity (ln)” value turned out to be 9.85.
The figure for “GTGTTAATTTTAAATTGTACAAAATTTATATGATTT [XGTACX_site348]” is 9.56.
The figure for “ATATACTTTTTTTTTTTTTTTTTAACGTTATTTATG [CACACA_negctrl_site1277]” is 9.64; for “TTACACATATATATAAATATATATAAATATATATAT [CACACA_negctrl_site150]” it is 9.55; for “AAAATATATGAAAACAGTACATATAAAAATTAAAAA [XGTACX_site2594]” it is 9.73.
For “ATTAATTTTGGTTCATGTACATAAGAAATAAACTCT [XGTACX_site4534]” the value was 9.42; for “ATTTTTATACGTTTTTTTTTTTTTTTTTTTTATTTA [CACACA_negctrl_site1142]”, 9.65.
Turning to “TATAACATAATATAGACACACACATGTACTTATGCC [CACACA_site8547]”, the “gcPBM binding intensity (ln)” value came out at 10.4.
For “TTTATATTTCAATTTTGTGCTTCGCAAATTGAGAGG [TGCATGCA_negctrl_site327]” the value was 9.39; for “CACTACATTATGTCATAAATGCATACATAAACATAT [GTGCAC_negctrl_site513]”, 9.71; for “TAAAAATTATATATCACACATATATGTCAGTATACA [CACACA_site4624]”, 9.74.
The figure for “ATTTATATGTGGAGCAGTACGCACTCTCACAATTAA [XGTACX_site7252]” is 9.44; for “TAATATATGTATATATGTACATATAAATGTTATAGA [XGTACX_site2721]” it is 9.69.
For the sequence “TTGGTATAAAATTATAGTACATAAGGTAAATATAAA [XGTACX_site4698]”, the “gcPBM binding intensity (ln)” value was 9.79.
For “GATGTTCATCACTACACACACAAAGAAATATATATA [CACACA_site2684]”, the “gcPBM binding intensity (ln)” value is 10.2.
Consider “AAAGAAAAAAAATATAAAAAATAAAAAATAAAACAA [CACACA_negctrl_site374]”, for which the “gcPBM binding intensity (ln)” value was determined as 9.55.
Take “TTGTATTTCCTTAGGAGTACACATAAATAAGTAAAT [XGTACX_site6677]”: the “gcPBM binding intensity (ln)” value was 9.54.
Regarding “GTAAAATATATAAAATGTACATATATTATATATATA [XGTACX_site489]”, the “gcPBM binding intensity (ln)” value was 9.64.
The figure for “CATTTAAAAGATAAAACACACATACTAATAAAAAAC [CACACA_site5417]” is 9.93; for “TTTCTTTATTAAAATATTTTACATATATAATATACG [TGCATGCA_negctrl_site564]” it is 9.63; for “CTTCTCTTTTTTATCATGCACTTTTTGTATAATAAT [GTGCAC_site9834]” it is 9.83.
For “ACATATATTATTATATGTACATATATTAATTATATA [XGTACX_site3400]” the value was 9.55.
For “ATCATTTTTAAAGGAACACACAAAAAAAATTAAAAT [CACACA_site4878]” the value was 9.74; for “ACTCTCTTATATTAAACACACATATATATCTGTATA [CACACA_site5489]”, 9.99; for “AATTTAATATAATGCACACATAAAACAAAAACAAAA [CACACA_site529]”, 10.1.
For “TACGTAAATGTGTGTGTGCACGTTATATATTAATAT [GTGCAC_site9976]”, the “gcPBM binding intensity (ln)” value was determined as 10.2.
With “TATTATCGTTCTCATACACACAAAATATACATACAC [CACACA_site2643]”, the “gcPBM binding intensity (ln)” value stood at 10.2.
In the case of “CATTTTTTATTTCCTTGTACGAATAAAATATATTTA [XGTACX_site6844]”, the “gcPBM binding intensity (ln)” value came to 9.38.
The figure for ATAAACATATAAAAAGTGCATATTCATATATCTACT is 9.73; for “ATGGCCTCATTTGGGACACACAACATAAAATATATA [CACACA_site753]” it is 9.8.
The figure for “AATACACTAAACAAAAGTACAAAAATATTCTACAAA [XGTACX_site5162]” is 9.73; for “AAATATATTTTATGTACACACAAAATTAAGGGATAT [CACACA_site4881]” it is 10.2; for “TGTTAATTATAAATTTGTACTTATTTTTACAAAATA [XGTACX_site6598]” it is 9.48.
The figure for “TTATAATAATATAATACATGCATATATATTTAAATA [TGCATGCA_site903]” is 9.6.
In the case of “TCACTATAATAATTTACACACATTTTAAGAAAATGT [CACACA_site3530]”, the “gcPBM binding intensity (ln)” value was 9.92.
The figure for “AAAATGAATAAAAATACACACATATCTGTTATTCTC [CACACA_site5474]” is 9.84; for “GAATATTAATTCATACGTACTTATATATAAGTATAT [XGTACX_site3707]” it is 9.71; for “TATAAAAATGGGCACACACACACATATATATATTTA [CACACA_site1527]” it is 10.6.
In the case of “ATATATATATATATAACACACGCAAAAAAATTAAAT [CACACA_site8395]”, the “gcPBM binding intensity (ln)” value is 10.1.
